# Data published in paper PMC4336329 (PLoS ONE, 2015).
# Out of some 310,000 compounds screened, about 2,200 (0.71%) showed an effect of 50% or more. Effects have a minus sign here. Some of the results follow.
# Biological target: human ether-à-go-go-related gene (hERG) potassium channel (human, UniProt Q12809)
# Assay: primary screen, population patch clamp on CHO cells stably expressing hERG
# human ether-à-go-go-related gene (hERG) potassium channel, sequence (Q12809 whole entry, looked up): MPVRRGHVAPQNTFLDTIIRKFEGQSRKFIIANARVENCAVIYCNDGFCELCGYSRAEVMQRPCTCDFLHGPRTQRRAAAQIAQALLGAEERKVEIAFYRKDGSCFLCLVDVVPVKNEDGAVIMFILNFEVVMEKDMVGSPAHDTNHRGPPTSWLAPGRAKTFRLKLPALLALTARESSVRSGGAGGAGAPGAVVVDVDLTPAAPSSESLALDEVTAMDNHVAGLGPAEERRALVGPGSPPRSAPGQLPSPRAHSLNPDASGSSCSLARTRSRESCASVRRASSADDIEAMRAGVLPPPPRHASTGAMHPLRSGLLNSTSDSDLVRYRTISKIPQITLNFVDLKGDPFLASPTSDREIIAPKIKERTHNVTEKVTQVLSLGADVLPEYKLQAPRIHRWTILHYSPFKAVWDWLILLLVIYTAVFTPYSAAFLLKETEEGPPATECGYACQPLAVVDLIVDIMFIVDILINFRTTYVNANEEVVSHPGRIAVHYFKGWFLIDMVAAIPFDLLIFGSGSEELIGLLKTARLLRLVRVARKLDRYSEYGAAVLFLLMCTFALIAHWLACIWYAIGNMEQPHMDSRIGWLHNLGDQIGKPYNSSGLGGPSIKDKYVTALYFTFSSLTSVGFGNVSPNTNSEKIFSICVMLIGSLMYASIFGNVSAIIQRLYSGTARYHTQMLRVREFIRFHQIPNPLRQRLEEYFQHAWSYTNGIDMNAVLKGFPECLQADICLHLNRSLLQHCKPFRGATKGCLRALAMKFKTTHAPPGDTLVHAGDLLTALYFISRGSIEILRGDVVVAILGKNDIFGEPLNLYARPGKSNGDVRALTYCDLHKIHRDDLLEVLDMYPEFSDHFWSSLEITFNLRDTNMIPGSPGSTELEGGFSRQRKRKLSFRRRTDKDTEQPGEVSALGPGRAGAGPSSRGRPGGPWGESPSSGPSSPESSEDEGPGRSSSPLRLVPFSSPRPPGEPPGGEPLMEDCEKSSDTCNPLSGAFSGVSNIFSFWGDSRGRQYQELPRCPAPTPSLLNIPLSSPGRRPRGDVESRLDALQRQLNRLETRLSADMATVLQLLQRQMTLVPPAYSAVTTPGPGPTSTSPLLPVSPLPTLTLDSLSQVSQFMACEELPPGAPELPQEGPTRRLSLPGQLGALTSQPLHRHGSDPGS
row,Structure (SMILES),"hERG current change (%, negative = inhibition) at 1uM [%]"
1,CCOC(=O)N1CCC(NCCNC(=O)c2cccc(F)c2)CC1.Cl,14.4
2,CC(=O)Nc1cccc(Oc2ccc([N+](=O)[O-])cc2Cl)c1,10.2
3,O=c1[nH]c(NCCO)nc2c1C1(CCCC1)Cc1ccccc1-2,10.1
4,CC(=O)Nc1ccc2[nH]c(C)cc(=O)c2c1,5.46
5,O=C(CCS(=O)(=O)c1ccccc1)OCC(=O)N1CCN(S(=O)(=O)c2ccc(Cl)cc2)CC1,8.42
6,Cc1ccnc(N/C=C(\C#N)c2nc(-c3cccc(Br)c3)cs2)c1,9.63
7,c1ccc(SCCOCCn2cncn2)cc1,15.3
8,COc1cccc(CN(C)Cc2nc(Cc3ccccc3Cl)no2)c1,17
9,Cn1c(SCc2c(Cl)cccc2Cl)nnc1-c1ccc2nonc2c1,-4.34
10,Cc1ccc(S(=O)(=O)N(CC(=O)NCCSC2CCCCC2)c2ccccc2F)cc1,14.9
11,Clc1ccc(-n2nnnc2-c2ccno2)cc1,11.6
12,CCCCOc1ccc(Cl)cc1CSc1n[nH]c(C)n1,-0.253
13,Nn1c(Cc2cccc3ccccc23)nnc1SCC(=O)N1CC(=O)Nc2ccccc21,6.51
14,Cc1ccc(C2=NN(C(=O)CSc3nc(N)cc(N)n3)C(c3ccco3)C2)cc1 (stereo not drawn),2.97
15,COc1cccc(NC(=O)NNS(=O)(=O)c2ccc(OC)cc2OC)c1,8.7
16,O=C1NC(=O)N(c2ccc3c(c2)OCO3)C(=O)/C1=C\c1ccsc1,6.7
17,C=CCn1c(-c2ccc(OC)cc2)nc2nc3ccccc3nc21,18.5
18,COc1ccc(NC(=S)N2CCN(S(=O)(=O)c3ccccc3)CC2)cc1,8.69
19,CC1(C(=O)N/N=C/c2ccccc2)CC1(Cl)Cl (stereo not drawn),3.03
20,Cc1ccccc1NC(=O)NC1(C(=O)NCc2ccco2)CCCCC1,11.2
21,CC(c1ccccc1)c1nnc(NC(=O)Nc2ccccc2)s1 (stereo not drawn),4.84
22,COc1ccccc1N1CCN(C(=O)c2cccc(C(=O)N3CCN(c4ccccc4OC)CC3)c2)CC1,5.96
23,Cc1ccc(S(=O)(=O)/N=C(\c2ccc(F)cc2)n2c(C)nc3ccccc32)cc1,9.35

row,Structure (SMILES),"hERG current change (%, negative = inhibition) at 1uM [%]"
1,COC(=O)c1ccc2c(=O)n(CCCCCC(=O)NCc3ccc4c(c3)OCO4)c(=O)[nH]c2c1,-37.5
2,COc1ccnc2c1c(=O)n(Cc1ccc(Cl)cc1Cl)c(=O)n2C,11.2
3,Cc1c(S(=O)(=O)NC2CCCCCC2)c(=O)n(C)c(=O)n1C,-0.188
4,CCn1cc(C(=O)NCC2CCCO2)c2cc(OC)c(OC)cc2c1=O (stereo not drawn),14.8
5,O=[N+]([O-])c1ccc(N2CCNCC2)cc1Sc1nc2ccccc2[nH]1,-5.29
6,Cc1ccc(NC(=O)c2cc3c(=O)oc4ccc(C)cc4c3s2)nc1,11.2
7,O=C(NCc1ccc(F)cc1)c1c2c(nc3ccccc13)CCC2,-3.74
8,CC1CCC2(CC1)NC(=O)N(NC(=O)CSc1nnc(NC3CC3)s1)C2=O (stereo not drawn),3.44
9,COc1ccc(CC(=O)Nc2ccccc2-c2ccccc2)cc1OC,14.5
10,Cl.Clc1cccc(CNCCCSc2ncccn2)c1Cl,16.4
11,O=C(Nc1nnc(C2CC2)s1)C1Cc2ccccc2CN1C(=O)c1ccco1 (stereo not drawn),5.83
12,O=C(/C=C/c1ccccc1)NC(=S)Nc1ccc(N2CCOCC2)c(Cl)c1,12.1
13,CCC(C)C(NC(=O)C1CCC(C)CC1)C(=O)NC(C(=O)OC)C(C)C (stereo not drawn),8.78
14,Cn1c(-c2ccccc2)c(CCO)c2ccccc21,13
15,Cc1ccc(-c2nnn(CC(=O)N(Cc3cccs3)C(C(=O)NC(C)(C)C)c3ccco3)n2)o1 (stereo not drawn),17.7
16,Cc1ccc(S(=O)(=O)N2CCOCC2)cc1NC(=O)CSc1ccccn1,3.83
17,CCOC(=O)N1CCN(S(=O)(=O)c2ccc3c(c2)CC(C)N3C(C)=O)CC1 (stereo not drawn),19.9
18,CCOc1ccc(S(=O)(=O)N2CCN(C(=O)C3CSC4(C)CCC(=O)N34)CC2)cc1 (stereo not drawn),13.2
19,Cn1cnc([N+](=O)[O-])c1Oc1cccc2ccccc12,11.8
20,CCn1c(O)c(C=NCc2cccs2)c(=O)[nH]c1=O,3.5
21,COc1cccc(CNn2c(-c3cccc(C)c3)nc3ccccc3c2=O)c1,6.03
22,O=C(Nc1cccc([N+](=O)[O-])c1)c1[nH]ncc1Cl,1.76
